This passage reports binding results from PMC5669876.

By UniProt entry, the sequences of proteins in these tests, tags left out. Where a name states a change or a piece, a line headed by the entry shows the natural chain unless it says otherwise.
UniProt Q00987: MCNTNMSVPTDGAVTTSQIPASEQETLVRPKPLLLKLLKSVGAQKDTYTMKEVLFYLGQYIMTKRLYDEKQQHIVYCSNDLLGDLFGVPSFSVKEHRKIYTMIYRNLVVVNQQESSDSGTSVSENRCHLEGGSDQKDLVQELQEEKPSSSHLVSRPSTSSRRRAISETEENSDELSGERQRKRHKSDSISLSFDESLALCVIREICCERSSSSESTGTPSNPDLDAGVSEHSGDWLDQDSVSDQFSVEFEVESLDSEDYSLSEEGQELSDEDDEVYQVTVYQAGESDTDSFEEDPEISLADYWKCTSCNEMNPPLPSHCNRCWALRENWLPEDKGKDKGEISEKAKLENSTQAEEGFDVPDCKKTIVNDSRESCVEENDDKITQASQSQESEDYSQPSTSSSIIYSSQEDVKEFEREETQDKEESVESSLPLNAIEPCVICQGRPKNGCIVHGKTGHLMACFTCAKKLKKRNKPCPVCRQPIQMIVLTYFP
UniProt P0DMV8: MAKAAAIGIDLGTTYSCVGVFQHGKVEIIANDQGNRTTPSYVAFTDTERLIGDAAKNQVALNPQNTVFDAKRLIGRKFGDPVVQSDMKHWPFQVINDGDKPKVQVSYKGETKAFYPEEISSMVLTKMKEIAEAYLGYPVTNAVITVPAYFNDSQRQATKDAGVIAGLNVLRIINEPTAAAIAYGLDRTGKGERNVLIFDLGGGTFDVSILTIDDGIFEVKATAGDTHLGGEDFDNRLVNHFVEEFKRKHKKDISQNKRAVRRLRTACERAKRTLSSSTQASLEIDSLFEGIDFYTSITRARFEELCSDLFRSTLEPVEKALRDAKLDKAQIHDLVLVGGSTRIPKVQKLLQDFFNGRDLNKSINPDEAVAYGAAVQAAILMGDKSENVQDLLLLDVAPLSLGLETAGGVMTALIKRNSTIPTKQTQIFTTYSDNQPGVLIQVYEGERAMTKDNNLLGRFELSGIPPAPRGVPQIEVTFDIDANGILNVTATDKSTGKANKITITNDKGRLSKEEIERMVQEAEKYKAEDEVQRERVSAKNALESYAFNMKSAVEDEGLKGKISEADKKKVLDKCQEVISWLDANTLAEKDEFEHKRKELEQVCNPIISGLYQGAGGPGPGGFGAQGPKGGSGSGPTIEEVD

No constants are given. Whether binding was seen depends on the method and setting. Binding seen in cells or lysates may run through a third protein. Some entries that bind do so weakly or less than the wild type.

Experiment [1] deals with T1, endogenous TAp73α (SKBR3) (human (endogenous in SKBR3)) (UniProt O15350).
T1 sequence: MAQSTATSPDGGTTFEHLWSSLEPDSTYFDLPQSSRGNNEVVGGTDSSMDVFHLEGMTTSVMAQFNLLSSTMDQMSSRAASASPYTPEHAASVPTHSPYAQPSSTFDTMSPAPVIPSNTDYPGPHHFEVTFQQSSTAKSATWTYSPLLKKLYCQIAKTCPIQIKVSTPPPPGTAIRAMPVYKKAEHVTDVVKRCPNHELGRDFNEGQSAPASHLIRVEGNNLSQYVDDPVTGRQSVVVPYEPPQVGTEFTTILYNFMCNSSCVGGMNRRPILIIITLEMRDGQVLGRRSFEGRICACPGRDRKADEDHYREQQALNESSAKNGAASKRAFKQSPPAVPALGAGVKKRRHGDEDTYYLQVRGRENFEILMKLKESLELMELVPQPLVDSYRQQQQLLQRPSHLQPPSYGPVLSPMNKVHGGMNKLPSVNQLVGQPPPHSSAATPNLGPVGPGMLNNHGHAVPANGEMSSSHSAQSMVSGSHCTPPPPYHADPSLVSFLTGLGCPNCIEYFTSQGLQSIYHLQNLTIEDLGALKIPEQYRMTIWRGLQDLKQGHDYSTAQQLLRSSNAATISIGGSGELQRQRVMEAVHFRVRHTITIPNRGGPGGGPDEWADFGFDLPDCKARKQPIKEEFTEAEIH
Briefly: co-IP; endogenous proteins of SKBR3 cell lysates; IP with anti-p73 antibody.

Another experiment addresses MDM2 (ectopic, H1299) (UniProt Q00987). Put plainly: co-IP; two step Co-IP from transfected H1299 cells; cellular proteins cross-linked with 1 mM DSP; first IP anti-p53, elution with 100 mM glycine pH 2.5, second IP anti-HA or anti-MDM2; cross-links reversed with DTT; Western blot.
Experiment [2] concerns the target HA-HSP70 WT (UniProt P0DMV8). The experiment is described as above.
Another experiment has as its target HA-HSP70 D10S (UniProt P0DMV8). Put plainly: co-IP; H1299 cells transfected with p53 R175H, TAp73α and HA-HSP70 WT/K71S/D10S (in one panel also HSP40 siRNA); HA-HSP70 immunoprecipitated with anti-HA antibody; Western blot. Background: A western blot detects proteins with antibodies after separation by electrophoresis.
The target of another experiment is HA-HSP70 K71S (UniProt P0DMV8). The description is as above.
Experiment [3] has as its target HA-HSP70 WT (UniProt P0DMV8). The description is as above.
In experiment [4] the target is endogenous MDM2 (SKBR3) (human (endogenous in SKBR3)) (UniProt Q00987). Put plainly: co-IP; two step Co-IP from SKBR3 cells (endogenous p53 R175H and MDM2) transfected with TAp73α; DSP cross-linking; first IP anti-p53, second IP anti-MDM2.

Consider “endogenous MDM2 (SKBR3) (from UniProt Q00987 1-491)”, for which the binding entry in experiment [1] is recorded as “binds”.
Take TAp73α (from UniProt O15350 1-636): the binding result with MDM2 (ectopic, H1299) was “binds”; with HA-HSP70 WT [2], “binds”; in the experiment with HA-HSP70 D10S it was “no binding”; with HA-HSP70 K71S, “binds”; with HA-HSP70 WT [3], “binds”.
With “TAp73α (ectopic, SKBR3) (from UniProt O15350 1-636)”, in experiment [4], the binding result is listed as “binds”.
